Results: paper PMC5892938
The list shows a part of the results. At the low end of the ranking the order means little.

molecular target: GST-SBP-SLBP (stem-loop binding protein) (UniProt Q14493); test: targeted RNA Bind-n-Seq; conditions: RBNS binding buffer: 25 mM Tris pH 7.5, 150 mM KCl, 3 mM MgCl2, 0.1% Tween, 0.5 mg/mL BSA, 1 mM DTT; 27 nM protein, 750 pM RNA pool; temperature not stated; high values mean tight binding;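 also: DESeq read counts versus GST-SBP nonspecific binding control pulldown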

Sequence | binding signal (log2 fold change)
GGUCACGUCUCAAUCAACUCAACUUCCAGGGAAAUCCCUGGUAUAUUCAACAGCUCGCAGUCAAG | 0.154
GGUCACGUCUCAAUCAACUCAAUCUCAGGAGUUUUCUCCUGUUUACUCAACAGCUCGCAGUCAAG | 0.00768
GGUCACGUCUCAAUCAACUCUUCCCCCAGGGAAACCCCUGGUAUUCUCAACAGCUCGCAGUCAAG | -0.117
GGUCACGUCUCAAUCAACUCAUCCCCAGGAGUUUCCUCCUGCAAUCUCAACAGCUCGCAGUCAAG | 0.268
GGUCACGUCUCAAUCAACUCUUUUUCCAGGGAAACCCCUGGCUAUUUCAACAGCUCGCAGUCAAG | -0.209
GGUCACGUCUCAAUCAACUCUUCUUCCAGGGAAAUCCCUGGUAAACUCAACAGCUCGCAGUCAAG | 0.00324
GGUCACGUCUCAAUCAACUCUUUCCCAGGAGUUUUCUCCUGUAUUUUCAACAGCUCGCAGUCAAG | 0.0944
GGUCACGUCUCAAUCAACUCAGUCCCAGGAGUUUCCUCCUGCAUUCUCAACAGCUCGCAGUCAAG | 0.0232
GGUCACGUCUCAAUCAACUCUUUCCCCAGGGAAAUCCCUGGCUUUUUCAACAGCUCGCAGUCAAG | -0.205
GGUCACGUCUCAAUCAACUCAUCCUCCAGGGAAACCCCUGGCAUACUCAACAGCUCGCAGUCAAG | -0.027
GGUCACGUCUCAAUCAACUCAAUCCCAGGAGUUUACUCCUGUUUAUUCAACAGCUCGCAGUCAAG | -0.0735
GGUCACGUCUCAAUCAACUCAUCGGCAGGAGUUUUCUCCUGGAUAUUCAACAGCUCGCAGUCAAG | 0.131
GGUCACGUCUCAAUCAACUCUACUUCCAGGGAAAACCCUGGUUUACUCAACAGCUCGCAGUCAAG | 0.207
GGUCACGUCUCAAUCAACUCUAUUCCAGGAGUUUUCUCCUGUAUUUUCAACAGCUCGCAGUCAAG | -0.0336
GGUCACGUCUCAAUCAACUCACAAGAGGGGGGGAAAACCCCUUUGCCCUCACUUUCAACAGCUCGCAGUCAAG | -0.176
GGUCACGUCUCAAUCAACUCACACGAGGGGGGGAAAACCCCUUUACCCUCAAAAUCAACAGCUCGCAGUCAAG | 0.0825
GGUCACGUCUCAAUCAACUCCCUAGAGGGGGGGAAAACCCCUUUGCCCUCCAUUUCAACAGCUCGCAGUCAAG | -0.5
GGUCACGUCUCAAUCAACUCAUCCCCCAGGGAAAACCCUGGCUAACUCAACAGCUCGCAGUCAAG | 0.0392
GGUCACGUCUCAAUCAACUCUAUUUCCAGGGAAAACCCUGGCAUUCUCAACAGCUCGCAGUCAAG | 0.0709
GGUCACGUCUCAAUCAACUCAUCCUCAGGAGUUUCCUCCUGCUUAUUCAACAGCUCGCAGUCAAG | 0.0629
GGUCACGUCUCAAUCAACUCAAUCCCCAGGGAAAUCCCUGGUUUAUUCAACAGCUCGCAGUCAAG | -0.0516
GGUCACGUCUCAAUCAACUCAUUUUCAGGAGUUUCCUCCUGCAAUUUCAACAGCUCGCAGUCAAG | -0.0569
GGUCACGUCUCAAUCAACUCAAACGAGGGGGGGAAAACCCCUUUACCCUCCAAUUCAACAGCUCGCAGUCAAG | 0.0464
GGUCACGUCUCAAUCAACUCUAUUUCAGGAGUUUUCUCCUGUUUUUUCAACAGCUCGCAGUCAAG | 0.0196
GGUCACGUCUCAAUCAACUCAGUUUCAGGAGUUUGCUCCUGCUUAUUCAACAGCUCGCAGUCAAG | 0.11

Sequence | binding signal (log2 fold change)
GGUCACGUCUCAAUCAACUCCUACGAGGGGGGGAAAACCCCUUUACCCUCCAUUUCAACAGCUCGCAGUCAAG | -0.0353
GGUCACGUCUCAAUCAACUCUUUCCCCAGGGAAAUCCCUGGUAGUCUCAACAGCUCGCAGUCAAG | 0.13
GGUCACGUCUCAAUCAACUCUAUUCCCAGGGAAACCCCUGGCUUAUUCAACAGCUCGCAGUCAAG | 0.00434
GGUCACGUCUCAAUCAACUCUUCUUCCAGGGAAAUCCCUGGCAAUGUCAACAGCUCGCAGUCAAG | 0.132
GGUCACGUCUCAAUCAACUCAUCCCCAGGAGUUUGCUCCUGCUAUUUCAACAGCUCGCAGUCAAG | 0.174
GGUCACGUCUCAAUCAACUCUAUUUCCAGGGAAACCCCUGGCAAUUUCAACAGCUCGCAGUCAAG | -0.13
GGUCACGUCUCAAUCAACUCUCUAGAGGGGGGGAAAACCCCUUUGCCCUCACCGUCAACAGCUCGCAGUCAAG | 0.0176
GGUCACGUCUCAAUCAACUCCCUAGAGGGGGGGAAAACCCCUUUGCCCUCAAUCUCAACAGCUCGCAGUCAAG | -0.439
GGUCACGUCUCAAUCAACUCUAUUCCCAGGGAAACCCCUGGCAUUUUCAACAGCUCGCAGUCAAG | 0.0207
GGUCACGUCUCAAUCAACUCAUUUCCAGGAGUUUGCUCCUGCAUUUUCAACAGCUCGCAGUCAAG | -0.059
GGUCACGUCUCAAUCAACUCAACUUCAGGAGUUUGCUCCUGUUAUCUCAACAGCUCGCAGUCAAG | -0.0442
GGUCACGUCUCAAUCAACUCUUCUUCAGGAGUUUUCUCCUGCAUAUUCAACAGCUCGCAGUCAAG | 0.0186
GGUCACGUCUCAAUCAACUCAGUCCCCAGGGAAAGCCCUGGCAUAUUCAACAGCUCGCAGUCAAG | 0.34
GGUCACGUCUCAAUCAACUCCACAGAGGGGGGGAAAACCCCUUUACCCUCCAAAUCAACAGCUCGCAGUCAAG | -0.114
GGUCACGUCUCAAUCAACUCACUAGAGGGGGGGAAAACCCCUUUACCCUCCAUAUCAACAGCUCGCAGUCAAG | -0.247
GGUCACGUCUCAAUCAACUCUUCCGAGGGGGGGAAAACCCCUUUACCCUCUUUUUCAACAGCUCGCAGUCAAG | 0.253
GGUCACGUCUCAAUCAACUCUUCCCCCAGGGAAACCCCUGGCAUAUUCAACAGCUCGCAGUCAAG | -0.0573
GGUCACGUCUCAAUCAACUCAUUCUCCAGGGAAAACCCUGGUAUUCUCAACAGCUCGCAGUCAAG | 0.159
GGUCACGUCUCAAUCAACUCAUUCUCAGGAGUUUCCUCCUGCAAAUUCAACAGCUCGCAGUCAAG | 0.00261
GGUCACGUCUCAAUCAACUCUUUCCCCAGGGAAAGCCCUGGCAAAUUCAACAGCUCGCAGUCAAG | 0.17
GGUCACGUCUCAAUCAACUCAAUCCCAGGAGUUUCCUCCUGUAAUGUCAACAGCUCGCAGUCAAG | 0.0804
GGUCACGUCUCAAUCAACUCUACUCCCAGGGAAAUCCCUGGCAAAUUCAACAGCUCGCAGUCAAG | 0.0336
GGUCACGUCUCAAUCAACUCUUUCGAGGGGGGGAAAACCCCUUUGCCCUCAACAUCAACAGCUCGCAGUCAAG | -0.45
GGUCACGUCUCAAUCAACUCUCUAGAGGGGGGGAAAACCCCUUUACCCUCAUCGUCAACAGCUCGCAGUCAAG | -0.454
GGUCACGUCUCAAUCAACUCAAUUCCAGGAGUUUCCUCCUGUAUUUUCAACAGCUCGCAGUCAAG | 0.0487

Sequence | binding signal (log2 fold change)
GGUCACGUCUCAAUCAACUCAGUCCCCAGGGAAAACCCUGGCUUAUUCAACAGCUCGCAGUCAAG | 0.209
GGUCACGUCUCAAUCAACUCUCUAGAGGGGGGGAAAACCCCUUUACCCUCCACAUCAACAGCUCGCAGUCAAG | -0.175
GGUCACGUCUCAAUCAACUCUUUCGAGGGGGGGAAAACCCCUUUACCCUCAUCCUCAACAGCUCGCAGUCAAG | 0.00394
GGUCACGUCUCAAUCAACUCCUUCGAGGGGGGGAAAACCCCUUUACCCUCCACAUCAACAGCUCGCAGUCAAG | 0.203
GGUCACGUCUCAAUCAACUCAUUCCCCAGGGAAACCCCUGGCAAUCUCAACAGCUCGCAGUCAAG | -0.0169
GGUCACGUCUCAAUCAACUCUUUCGAGGGGGGGAAAACCCCUUUACCCUCACCAUCAACAGCUCGCAGUCAAG | 0.0225
GGUCACGUCUCAAUCAACUCAAUCUCAGGAGUUUUCUCCUGUUUAUUCAACAGCUCGCAGUCAAG | 0.267
GGUCACGUCUCAAUCAACUCAACUCCAGGAGUUUUCUCCUGUAAAUUCAACAGCUCGCAGUCAAG | -0.0406
GGUCACGUCUCAAUCAACUCUAUAGAGGGGGGGAAAACCCCUUUGCCCUCCACUUCAACAGCUCGCAGUCAAG | 0.0428
GGUCACGUCUCAAUCAACUCAUUUUCCAGGGAAAUCCCUGGCAGUCUCAACAGCUCGCAGUCAAG | -0.143
GGUCACGUCUCAAUCAACUCUAUCCCCAGGGAAAACCCUGGCUUAUUCAACAGCUCGCAGUCAAG | 0.154
GGUCACGUCUCAAUCAACUCUUCGUCCAGGGAAAUCCCUGGCAUUUUCAACAGCUCGCAGUCAAG | -0.292
GGUCACGUCUCAAUCAACUCAUUUCCCAGGGAAAGCCCUGGUAUACUCAACAGCUCGCAGUCAAG | -0.182
GGUCACGUCUCAAUCAACUCUACUCCCAGGGAAAACCCUGGCUUUCUCAACAGCUCGCAGUCAAG | -0.249
GGUCACGUCUCAAUCAACUCUACAGAGGGGGGGAAAACCCCUUUACCCUCAAUAUCAACAGCUCGCAGUCAAG | -0.024
GGUCACGUCUCAAUCAACUCAAUCUCCAGGGAAAUCCCUGGCUUUUUCAACAGCUCGCAGUCAAG | 0.0877
GGUCACGUCUCAAUCAACUCAUCCUCCAGGGAAAGCCCUGGUUUUUUCAACAGCUCGCAGUCAAG | -0.00839
GGUCACGUCUCAAUCAACUCAUUCCCCAGGGAAAUCCCUGGCUUUUUCAACAGCUCGCAGUCAAG | 0.278
GGUCACGUCUCAAUCAACUCCUUAGAGGGGGGGAAAACCCCUUUGCCCUCAACCUCAACAGCUCGCAGUCAAG | 0.282
GGUCACGUCUCAAUCAACUCUCAAGAGGGGGGGAAAACCCCUUUACCCUCCGCAUCAACAGCUCGCAGUCAAG | 0.0833
GGUCACGUCUCAAUCAACUCAAUCCCAGGAGUUUCCUCCUGUUUAUUCAACAGCUCGCAGUCAAG | 0.0208
GGUCACGUCUCAAUCAACUCUUCUUCCAGGGAAAACCCUGGCUUAUUCAACAGCUCGCAGUCAAG | 0.0245
GGUCACGUCUCAAUCAACUCCUAAGAGGGGGGGAAAACCCCUUUGCCCUCCAUAUCAACAGCUCGCAGUCAAG | -0.233
GGUCACGUCUCAAUCAACUCAUCUCCAGGAGUUUCCUCCUGCAUACUCAACAGCUCGCAGUCAAG | 0.323
